Results taken from the supplement of paper PMC4166925.
± gives the standard deviation of the averaged measurements. In all, about 33,000 sequences were measured (“E-score (dimensionless, -0.5 to 0.5)”: median about -0.046, highest 2% from about 0.36 on). The list shows a part of the results.

What follows are sequences tested on T1, SpTbr T-box DNA-binding domain (GST fusion) (assay: PBM E-score of 8-mer (E-score (dimensionless, -0.5 to 0.5)); Tbr is Tbrain of the sea star Patiria miniata (Pm) or the sea urchin Strongylocentrotus purpuratus (Sp); higher = stronger binding preference; most listed sequences are background and not binding sites). Conditions: the construct has about 5 more residues each side.
T1 sequence: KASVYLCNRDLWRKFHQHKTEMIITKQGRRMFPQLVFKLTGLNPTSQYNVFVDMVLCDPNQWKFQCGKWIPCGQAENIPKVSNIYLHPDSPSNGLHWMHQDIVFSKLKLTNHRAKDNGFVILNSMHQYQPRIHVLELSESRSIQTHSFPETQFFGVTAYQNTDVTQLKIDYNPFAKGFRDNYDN
Method in brief: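 Using the Universal PBM Analysis Suite, every ungapped 8-mer received an enrichment E-score averaged over duplicate arrays. Probe intensities came from double-stranded Universal Agilent oligonucleotide arrays incubated with 200 nM GST-fused Tbr T-box DNA-binding domain in PBS (pH 7.5). That protein was expressed in BL21 E. coli at 20 °C and purified by glutathione affinity chromatography.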

| Sequence | PBM E-score of 8-mer |
| --- | --- |
| ATCGAGAT | -0.0171 ± 0.015 |
| CGCCTTGA | 0.159 ± 0.083 |
| TCGGTCAA | -0.0875 ± 0.048 |
| CGTCGCTA | 0.0767 ± 0.0084 |
| ACATAAGT | 0.0685 ± 0.044 |
| GATTAAGC | -0.162 ± 0.035 |
| AAACTTCA | -0.089 ± 0.03 |
| CTCCCCGA | -0.181 ± 0.056 |
| CAAATCTG | 0.0869 ± 0.0039 |
| AATTTAGC | -0.0817 ± 0.059 |
| ACGCGACG | 0.222 ± 0.0027 |
| CACTACAA | 0.0532 ± 0.042 |
| AAAGTTCT | -0.194 ± 0.018 |
| ACGGCGAT | -0.0576 ± 0.054 |
| CGAGTCTC | -0.153 ± 0.02 |
| CGACCTAA | -0.0684 ± 0.14 |
| GTTTATAA | -0.153 ± 0.038 |
| ACCCGTGC | 0.0692 ± 0.004 |
| CAAGATTG | 0.1263 ± 0.00035 |
| CCTGCAGG | -0.124 ± 0.058 |
| CATAGTCA | -0.00255 ± 0.035 |
| AGAAGAGG | -0.174 ± 0.039 |
| ATAACTAC | -0.117 ± 0.085 |
| CACCCCTC | 0.276 ± 0.076 |
| GCCACCGC | 0.0467 ± 0.069 |

| Sequence | PBM E-score of 8-mer |
| --- | --- |
| ATCGGTTA | -0.111 ± 0.0098 |
| GAAGAAAA | -0.106 ± 0.013 |
| CTTTATTC | -0.169 ± 0.063 |
| CCCTGGCC | -0.191 ± 0.056 |
| CATAGGAC | -0.22 ± 0.081 |
| CAGAACGA | -0.0832 ± 0.089 |
| AGATCGCC | 0.142 ± 0.045 |
| AGAAACCA | -0.141 ± 0.077 |
| GGGGAAAA | -0.0922 ± 0.036 |
| ATCCTAGC | 0.0257 ± 0.025 |
| GTTCTACA | -0.0119 ± 0.053 |
| CGGCTGCA | -0.0602 ± 0.094 |
| CCCATACA | -0.308 ± 0.0056 |
| ACCTAAAC | 0.171 ± 0.033 |
| ATGCCTGG | -0.371 ± 0.046 |
| GCTACGTA | -0.199 ± 0.018 |
| ACTTGCAT | -0.0966 ± 0.0011 |
| ATTGCAGC | -0.0538 ± 0.047 |
| ACAGCGGG | 0.096 ± 0.033 |
| CTAGTGAG | 0.119 ± 0.034 |
| CTTAACTA | 0.0561 ± 0.019 |
| ATCTTAAG | -0.0417 ± 0.086 |
| CGTCTGAC | -0.104 ± 0.0052 |
| CAGGTGGA | 0.0117 ± 0.025 |
| TGTAACAA | 0.167 ± 0.069 |

| Sequence | PBM E-score of 8-mer |
| --- | --- |
| ATCAGAAA | -0.0707 ± 0.098 |
| AACGCCCC | 0.243 ± 0.04 |
| ATTCTCAG | 0.0379 ± 0.094 |
| AATAGGGC | -0.232 ± 0.02 |
| ACTTTCAT | 0.00339 ± 0.062 |
| AAAGGCAT | -0.0371 ± 0.035 |
| AGCTGAGC | -0.255 ± 0.096 |
| CTGCGATC | 0.106 ± 0.1 |
| GGAGGCGA | 0.133 ± 0.011 |
| AATCCTTG | -0.166 ± 0.063 |
| ATTTGCTG | -0.124 ± 0.061 |
| TCGCCAAA | 0.00542 ± 0.097 |
| CCTCATTA | -0.227 ± 0.011 |
| AATATCAC | 0.192 ± 0.094 |
| CAGCGACC | -0.104 ± 0.0053 |
| AAGTCAAC | 0.0738 ± 0.0042 |
| AGTTCTCG | 0.238 ± 0.0057 |
| ACGGCTCT | -0.0708 ± 0.02 |
| CAATAAGA | -0.213 ± 0.055 |
| ATCCCCGA | -0.195 ± 0.031 |
| ATACTTCA | -0.13 ± 0.07 |
| ATCTTAAA | -0.0879 ± 0.054 |
| GAGCCCCC | -0.215 ± 0.031 |
| CCTTGCTA | -0.0565 ± 0.096 |
| CAAGCGGA | -0.158 ± 0.079 |

| Sequence | PBM E-score of 8-mer |
| --- | --- |
| GGGGCACC | -0.127 ± 0.1 |
| ATACAATG | -0.0308 ± 0.011 |
| AATGGGAA | -0.188 ± 0.032 |
| AACATGGC | -0.215 ± 0.036 |
| CGGTGAAA | -0.274 ± 0.042 |
| AAGAAGAT | -0.0736 ± 0.1 |
| AAAGTAAA | -0.172 ± 0.075 |
| ATGAGTAA | -0.0943 ± 0.0023 |
| AGAAAGTG | 0.287 ± 0.06 |
| ATTGCATC | -0.214 ± 0.016 |
| CTTTTCCC | -0.218 ± 0.16 |
| ATCACAAC | 0.299 ± 0.025 |
| TCTGCAAA | -0.0679 ± 0.031 |
| AGCGCCGA | 0.152 ± 0.073 |
| AGAGCCTA | -0.332 ± 0.033 |
| GTACATAC | -0.0384 ± 0.00061 |
| GCAATAGA | -0.0798 ± 0.035 |
| AACACGTT | 0.367 ± 0.044 |
| CTCCTTTA | -0.0308 ± 0.006 |
| ATGCTATA | -0.168 ± 0.055 |
| AAGAAATA | 0.13 ± 0.06 |
| GCTCCACA | -0.00039 ± 0.012 |
| GAAAAAGC | -0.208 ± 0.11 |
| ACGAAAAG | -0.178 ± 0.028 |
| CAACTGAC | 0.182 ± 0.023 |

| Sequence | PBM E-score of 8-mer |
| --- | --- |
| GCCATGCC | -0.0317 ± 0.011 |
| GCATTGGA | -0.206 ± 0.049 |
| GAAGGGTA | -0.00279 ± 0.061 |
| ATACTAAT | -0.12 ± 0.019 |
| CATAATAC | -0.00448 ± 0.0078 |
| CAGATATG | -0.176 ± 0.05 |
| ATTCTAGC | -0.125 ± 0.003 |
| TCAAAGAA | -0.155 ± 0.01 |
| GTGGGTTA | 0.065 ± 0.072 |
| AGGCTCAC | -0.0576 ± 0.023 |
| CTTCGGAA | -0.249 ± 0.035 |
| GACCCCCC | -0.274 ± 0.013 |
| ATACTTCG | 0.0544 ± 0.074 |
| AGCATTTC | -0.00498 ± 0.015 |
| CACTTAAA | 0.193 ± 0.072 |
| TAAAAGCA | -0.117 ± 0.057 |
| AGAATAAT | -0.173 ± 0.025 |
| TCTTGGAA | -0.204 ± 0.0074 |
| AGGCCACC | -0.0979 ± 0.0063 |
| AAGCGCCG | 0.0262 ± 0.033 |
| CCAACAAC | 0.125 ± 0.055 |
| GATCTTGA | 0.0838 ± 0.011 |
| GGACGAAA | -0.0373 ± 0.096 |
| AAAGTTGA | 0.0259 ± 0.0017 |
| CCTCTACA | -0.0916 ± 0.1 |

| Sequence | PBM E-score of 8-mer |
| --- | --- |
| ATGTTTGG | -0.108 ± 0.06 |
| AATCCTCC | 0.0597 ± 0.00073 |
| ACGGCTGA | -0.172 ± 0.044 |
| CCTTCTTC | 0.0794 ± 0.076 |
| AGCGACAC | 0.332 ± 0.022 |
| AACTGTCG | 0.241 ± 0.013 |
| AGCCGACA | 0.154 ± 0.0023 |
| CTATCTCC | -0.112 ± 0.027 |
| CGGTGATC | -0.0462 ± 0.038 |
| TGAACGCA | -0.228 ± 0.0055 |
| AATCTTCG | -0.114 ± 0.064 |
| CAGGTGGG | 0.2825 ± 0.00043 |
| CAAGATAC | -0.0448 ± 0.013 |
| ATAAGCAT | -0.142 ± 0.028 |
| ATGTATAA | -0.0389 ± 0.013 |
| ATGGAAGA | -0.324 ± 0.029 |
| AAGCGATG | -0.017 ± 0.026 |
| GGAGATTA | -0.0793 ± 0.016 |
| TGGGCCAA | -0.11 ± 0.026 |
| GAAAACAA | -0.0618 ± 0.05 |
| ATGTGGGC | -0.0132 ± 0.0053 |
| CATTACGC | 0.0346 ± 0.071 |
| CGATAGGA | -0.0501 ± 0.0023 |
| ACGGACGG | -0.107 ± 0.064 |
| CACAGCTA | 0.327 ± 0.014 |

| Sequence | PBM E-score of 8-mer |
| --- | --- |
| AATCCCAC | 0.151 ± 0.013 |
| GCTCCAGA | -0.261 ± 0.008 |
| CCCCAGCC | -0.0674 ± 0.013 |
| CGTCGCCC | 0.149 ± 0.072 |
| CGCACCCC | 0.32 ± 0.044 |
| TTAGCCAA | -0.117 ± 0.0016 |
| TAACAGAA | -0.0518 ± 0.012 |
| CGTAACGA | -0.183 ± 0.031 |
| CGTTCGCA | 0.411 ± 0.0075 |
| CCGGGTAG | -0.056 ± 0.068 |
| ACTGCGGC | 0.0509 ± 0.003 |
| GCTGGGAA | 0.0702 ± 0.046 |
| ATCTCTCA | 0.171 ± 0.012 |
| TAAGTGTA | 0.143 ± 0.093 |
| CCTTTATC | -0.00086 ± 0.15 |
| CTCCCAGC | 0.07894 ± 7.1e-05 |
| TAAGGATA | -0.0903 ± 0.053 |
| ATTATTCA | -0.246 ± 0.073 |
| CATTTTGA | -0.216 ± 0.051 |
| CGACCCCG | -0.0732 ± 0.01 |
| CGCTTAAA | 0.0934 ± 0.032 |
| AGACTACG | -0.303 ± 0.026 |
